These results are taken from PubChem BioAssay (NCI).

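Step 1: Grow cells in 96-well plates. Step 2: Expose to compound for 48 hours at 5 concentrations. Step 3: Interpolate endpoints linearly; if unreached, use highest concentration. Abbreviation: GI50, concentration required for 50% inhibition of growth. At the TGI there is no net growth.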 Some results are limits rather than exact numbers.

The test system of the assay is NCI-H322M lung. Put plainly: DTP human tumour cell line panel, 48 h.
The term GI50 denotes the concentration at which growth is held to half of that of the control. The term TGI denotes the concentration giving total growth inhibition. `CCCCCC(=O)Oc1ccc(/C(=C(\C)c2ccc(OC)cc2)c2ccc(OCCN3CCCCC3)cc2)cc1`: the GI50 is 13.2 µM and the TGI is 26.5 µM. In turn, `COc1ccc(N2C(=O)C3c4[nH]c5ccccc5c4C4C(C)CCCC4C3C2=O)cc1` (configuration not stated) displayed a TGI of more than 100 µM. As to `Cc1noc(C)c1-c1ccc2[nH]c(=O)n3c2c1OC[C@@H]3c1ccccn1`, the GI50 was 5.72 µM and the TGI is more than 100 µM. In turn, `CNc1ccc2c(c1)Cc1ccccc1-2` returned a TGI of more than 100 µM. Take `CCN(Cc1c(F)cccc1F)c1ccc(CO)c(Cl)c1`: the GI50 is 1.34 µM and the TGI worked out at 9.48 µM. Consider `c1ccc2c(c1)N=C(c1cccc3ccccc13)CC(c1cccc3ccccc13)S2` (configuration not stated), for which the TGI is 28.9 µM. The same measure, in the same setting: the same measure for `COc1cc2c3c(n(C)c(=O)c2cc1OC)-c1cc2c(cc1/C3=C/CCCCBr)OCO2`: more than 100 µM; for `C[C@@H]1C(=O)CC2(O)[C@@]13C[C@@H](OC(=O)[C@@H]3O)[C@@H](C)[C@@]21COC1=O` (some centres not stated): more than 100 µM; for `CC1=C(C(=O)NNC(=O)CC#N)CC(C(=O)NNC(=O)CC#N)=C(C)N1`: more than 100 µM. As to `Nc1nc(Nc2ccc(OCc3cccc(F)c3)cc2)c2c(n1)[nH]c1ccc(O)cc12`, the GI50 is 3.62 µM and the TGI amounted to 15.5 µM. Turning to `Cc1c(-c2nc(N)nc(C3CC3)c2C)nc(N)nc1C1CC1`, the TGI is more than 100 µM. Take `CNc1nc(NC2CCCC2)nc(Sc2ccc(OC)cc2)n1`: the GI50 was more than 10 µM and the TGI is more than 10 µM. `O=C(c1ccccc1)[C@H]1Nc2cnccc2C2c3ccccc3CC21` (some centres not stated) had a TGI of more than 100 µM. As to `COc1ccc(NC2=C(Br)C(=O)C(C)=C(C)C2=O)cc1`, the GI50 was 14.6 µM and the TGI stood at 27.8 µM. Consider `Cc1cc(C)nc(NS(=O)(=O)c2ccc(Nc3c4ccccc4nc4c(C(=O)NCCO)cccc34)cc2)n1`, for which the TGI is more than 100 µM. On the same count and under the same terms, the same measure for `O=C1NN=C(c2c[nH]c3ccccc23)CC1NCc1ccccc1` (configuration not stated): more than 100 µM; for `COC(=O)c1cc(C(=O)OC)cc(-c2ccc3c(c2)-c2nc4c(c(-c5ccc(OC)cc5)c2CC3)CCc2ccc(-c3cc(C(=O)OC)cc(C(=O)OC)c3)cc2-4)c1`: 30.5 µM; for `COc1cc(/C=C/C(=N\NC(=O)c2ccccc2)c2sc(Nc3ccc(Cl)c(Cl)c3)nc2C)ccc1O`: more than 100 µM. The same measure, in the same setting: to `O=[N+]([O-])c1ccc2nc3c(nc2c1)-c1c2ccccc2cc2cccc-3c12` belongs more than 100 µM; to `CCOC(=O)/C(=C/c1ccco1)P(=O)(OCC)OCC`, more than 100 µM; to `O=CN(O)CC(=O)O`, more than 100 µM. For `C=C1C(=O)O[C@H]2[C@H]1CC/C(COC(=O)c1cc3cc(OC)ccc3[nH]1)=C\CC[C@@]1(C)O[C@@H]21`, the GI50 is 1.88 µM and the TGI stood at 4.56 µM. `Cc1ccc(-n2cc(-c3ccc(Cl)cc3)c3c2N=CN2NC(c4ccco4)=NC32)cc1` (configuration not stated) had a TGI of more than 100 µM. As to `Cc1ccc(C(=O)CC(Sc2cccc(Cl)c2Cl)c2ccc(Cl)cc2)cc1C` (configuration not stated), the GI50 was 17.9 µM and the TGI came to 43.3 µM. In turn, `COc1ccc(C2=NC(C)(C)CO2)cc1` had a TGI of more than 100 µM. As for `N#Cc1c(-c2ccccc2)nc2c(c(-c3ccccc3)nn2-c2ccccc2)c1-c1ccc(O)cc1`, the GI50 is 1.57 µM and the TGI is 2.96 µM. The corresponding values for `CCCS(=O)(=O)c1nc(NC2CC2)cc(-c2ccc3c(ccn3C3CC(C)(C)NC(C)(C)C3)c2)n1` are 1.72 µM and 3.25 µM. As for `COc1cc2c(cc1O)CC[n+]1cc3c(OC)c(OC)ccc3cc1-2`, the TGI was more than 100 µM. Same read-out and setting: the same measure for `COc1ccc(/C=N/Nc2nc3ccccc3c(=O)n2-c2ccccc2)c(OCc2ccccc2)c1`: more than 100 µM; for `Cc1ccc([N+](=O)[O-])c2c(NCCCN(C)C)ccnc12`: more than 100 µM; for `COc1cc2nc(-c3c(F)cccc3F)n(Cc3c(F)cccc3F)c2cc1Cc1c(F)cccc1F`: more than 100 µM. Still for that read-out and setting: the same measure for `O=C(Nc1ccc(S(=O)(=O)N[C@@H](C(=O)O)c2ccccc2)cc1)c1ccc(F)cc1`: more than 100 µM.
